# According to ChEMBL document CHEMBL4888484, “Replenishing the malaria drug discovery pipeline: Screening and hit evaluation of the MMV Hit Generation Library 1 (HGL1) against asexual blood stage Plasmodium falciparum ,using a nano luciferase reporter read-out” (2022):
# The whole screen tested about 150,000 compounds, of which about 540 (0.36%) showed an effect of 50% or more. Some of the results follow.
# Test system: Plasmodium falciparum
# Assay: Primary screen in NF54 nanoGlo assay, in single point, at 2uM, 72h; a lower Z score goes with more inhibition
# Format: functional, Erythrocyte
# Settings: timepoint 72 hour
SMILES,% Inhibition,Z score
O=C(c1ccccc1F)N1CCC(N2C(=O)N(Cc3cccnc3)C[C@]23CCOC3)CC1,-14%,1.93
Cc1ccc(C)c(OCc2cc(=O)n3ccc(C)cc3n2)c1,7%,-0.8
COc1cc(OC)nc(NC[C@H]2CN(C)CCO2)n1,-3%,0.39
CC1CN(c2ccc(NC(=O)N(C)CC3CC3)cc2)CC(C)O1 (stereo unspecified),-14%,1.76
CC(C)c1nc(Cn2cnc(-c3ccncc3)c2)no1,19%,-2.5
COc1cc(NCCc2scnc2C)ncn1,13%,-1.79
Cc1cc(S(=O)(=O)N(C)[C@H]2CCS(=O)(=O)C2)sc1Cl,-5%,0.57
CCOCCCCNC(=NC)N1CCCCC1,-6%,0.68
c1ncc(-c2ccc(-c3noc([C@@H]4CCCN4C4CCOCC4)n3)cn2)cn1,16%,-1.81
NC(=O)C1(NC(=O)c2n[nH]c(=O)c3ccccc23)CCCC1,-11%,2.01
O=C1NCCCc2[nH]c(-c3ccc(-n4cccn4)cc3)nc21,-24%,2.74
Cc1ccccc1CNC(=O)CN1C(=O)CCCc2cc(S(=O)(=O)N3CCCCC3)ccc21,-13%,1.63
Cc1c(S(=O)(=O)N2CCN(C(=O)c3ccc(F)cc3)CC2)cnn1C(F)F,37%,-5.31
CC1CC(NC(=O)c2cccc3nccn23)C(=O)N1c1ccccc1 (stereo unspecified),-4%,0.41
CC(=O)Nc1ccc(C)cc1S(=O)(=O)N1CCc2c(c(-c3nc(-c4ccccc4)no3)nn2C)C1,-14%,1.61
Cc1ccc(CNc2nc(-c3cccs3)n[nH]2)cc1,-33%,3.88
Cc1[nH]nc(C(=O)NC2(C(F)F)CC2)c1C,8%,-1.17
O=C(CN(Cc1ccccc1)C(=O)c1ccccc1)Nc1ccc(N2CCN(C(=O)c3ccccc3F)CC2)cc1,-1%,0.23
N[C@@H](CC(F)(F)F)c1ccc(Br)cc1,-12%,1.32
Cn1c(N2CCc3ccccc32)c(C#N)c(=O)n(C)c1=O,-6%,0.75
CCN1C(=O)C[C@H](C(=O)NCCc2csc(C)n2)[C@H]1c1nccn1CC,-8%,1.17
COCc1nc(N[C@H]2CCCN(Cc3ccccc3)C2)c2cnn(C)c2n1,-4%,0.54
COc1cc(OC)c(CN2C[C@H]3CN(C)C[C@H]3C2)cc1Cl,0%,0.07
O=C1C2CCCN2C(=O)N1CC(O)COCc1ccccc1 (stereo unspecified),-11%,1.6
CN1C[C@@H](NS(=O)(=O)c2cccnc2)Cc2ccccc21,18%,-2.31
COc1ccc(Cn2nc(C)cc2NC(=O)N2CCCNCC2)cc1OC,-5%,0.77
CCN(Cc1cnn(C)c1)C[C@H]1CN(c2ccccc2)C(=O)O1,-12%,1.5

SMILES,% Inhibition,Z score
O=S1(=O)NC[C@H](O)CN(Cc2cc3ccccc3o2)C[C@]2(COc3ccccc31)C[C@@H](O)[C@@H](O)C2,-5%,0.68
c1cc2nnnn2nc1N1CCC(c2nnc3n2CCC3)CC1,-11%,2.1
Cc1ccc(NCc2cnc(C)nc2C)c(OC[C@H]2CCCO2)c1,-2%,0.41
CCCc1cc(C(=O)N(Cc2cccnc2)C2CCN(C)CC2)cs1,-8%,1.03
CC(C)NC(=O)CN(C)S(=O)(=O)c1ccccc1,-4%,0.62
CO[C@@](C)(CNC(=O)NCc1cccs1)c1ccccc1F,17%,-2.2
CC1CC(C)CN(C(=O)Nc2cccc3cccnc23)C1 (stereo unspecified),-7%,1.36
Cc1ccc(CN2CCN(Cc3nc(-c4ccc(Cl)cc4)no3)C[C@@H]2CCO)o1,-5%,0.92
O=C(c1cc2ccccc2[nH]1)N1C[C@H]2C[C@H](C1)[C@@H]1CCCC(=O)N1C2,-4%,0.83
Cc1c(-c2ccccc2)nc2c(c1N)c(-c1ccccc1)c(-c1ccccc1)n2Cc1ccccc1,4%,-0.41
Cc1cnc(CCNC(=O)C(F)(F)C2(O)CCCC2)s1,-22%,2.25
COC[C@@H]1CCCN1C(=O)CN1CCCCCC1,-4%,0.82
C/C(=C\c1ccccc1)CN1CCC(C(=O)N(C)Cc2ccccc2)CC1,28%,-3.12
CC1CN(c2ccc(C(F)(F)F)cc2)CC(C)N1C(=O)[C@@H]1CC[C@H](C(N)=O)O1 (stereo partly specified),-3%,0.52
COCc1nc(CNc2cc(C)nc(Nc3cccc(O)c3)n2)no1,14%,-1.99
COc1ccc([C@H](C)NC(=O)N(C)CC(C)O)c(Br)c1 (stereo partly specified),15%,-1.94
C[C@H]1Cc2cc(Br)cc3c(=O)c(C(=O)Nc4cccc5ccccc45)cn1c23,-9%,1.1
Cc1ccc(O)c(C(=O)O[C@@H](C)C(=O)Nc2cc(C)no2)c1,-25%,2.25
COc1cc2c(cc1OC)[C@H](C)N(C(=O)CCc1nc(CS(=O)(=O)c3ccccc3)no1)CC2,0%,-0.01
Cc1ccncc1S(=O)(=O)N(C)c1ccc(N2CCOCC2)nc1,-7%,0.82
COc1ccc(C)c2sc(N(Cc3cccnc3)C(=O)c3ccn(C)n3)nc12,-12%,2
CC[C@@](C)(CNC(=O)CC(C)(C)C)N1CCOCC1,-10%,1.26
C#CCN(C)C[C@@H]1C=C(C)[C@H](Cc2nnc(-c3ccccc3)o2)C[C@H]1C(C)C,10%,-1.16
COC[C@H](C)NS(=O)(=O)c1ccc(C)cc1Cl,-2%,0.3
O=C(CC1CCCC1)N1CC(CN2C(=O)CCC2=O)C1,-7%,1.34
CCc1noc2ncnc(NCCC3=CCCCC3)c12,-18%,2.1
